The other results are listed elsewhere or left out. Sequences were assembled here from the parent chain. Inactive controls read about 0.05.
B1: TEV protease; numbered along this chain (parent)
chain: MGESLFKGPRDYNPISSSICHLTNESDGHTTSLYGIGFGPFIITNKHLFRRNNGTLVVQSLHGVFKVKDTTTLQQHLVDGRDMIIIRMPKDFPPFPQKLKFREPQREERICLVTTNFQTKSMSSMVSDTSCTFPSGDGIFWKHWIQTKDGQCGSPLVSTRDGFIVGIHSASNFTNTNNYFTSVPKNFMELLTNQEAQQWVSGWRLNADSVLWGGHKVFMVKPEEPFQPVKEATQL

Variants of: B1
Assay: raw area under fraction-flipped curve 0-4 h after induction (AUC4h, not background-subtracted), DNA-recorder readout of cleavage of the substrate (dimensionless); higher = more cleavage of the substrate by the protease variant
Settings: temperature: 34 °C; time window: 0-4 h after rhamnose induction
Experimental: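 In vivo DNA recorder in E. coli TOP10(DE3) ΔrhaA at 34 °C. Each TEVp single-site mutant (parent TEVp 0) is paired with a single-site variant of the 7-mer TEVs (canonical ENLYFQ|S). The substrate sits between flexible linkers in a Bxb1-sfGFP-TEVs-SsrA fusion, so cleavage stabilises Bxb1 and speeds flipping of a recombination array, read by NGS. The value is the raw area under the fraction-flipped curve over 0-4 h after rhamnose induction (AUC4h), with ≥20 reads per time point. It is not background-subtracted; inactive controls average about 0.047.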
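Further: Bxb1 expression induced with 0.2% (w/v) L-rhamnose at OD600 near 0.5, cultures sampled hourly, flipped fraction per protease–substrate barcode pair counted by paired-end Illumina sequencing.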

| Variant | area with substrate ENAYFQS | area with substrate ENCYFQS | area with substrate ENDYFQS | area with substrate ENEYFQS | area with substrate ENGYFQS | area with substrate ENHYFQS | area with substrate ENIYFQS | area with substrate ENNYFQS | area with substrate ENPYFQS | area with substrate ENQYFQS | area with substrate ENRYFQS | area with substrate ENSYFQS | area with substrate ENVYFQS | area with substrate ENWYFQS | area with substrate ENFYFQS | area with substrate ENKYFQS | area with substrate ENTYFQS | area with substrate ENMYFQS | area with substrate ENYYFQS |
| --- | --- | --- | --- | --- | --- | --- | --- | --- | --- | --- | --- | --- | --- | --- | --- | --- | --- | --- | --- |
| S169P | 0.0571 | 0.066 | 0.0623 | 0.0463 | 0.038 | 0.0498 | 0.056 | 0.05 | 0.0529 | 0.0556 | 0.0437 | 0.0557 | 0.0628 | 0.0476 | – | – | – | – | – |
| F173C | 0.064 | 0.0735 | 0.0802 | 0.067 | – | 0.0678 | 0.0875 | 0.0668 | 0.069 | 0.0578 | – | 0.0461 | 0.0815 | – | 0.0836 | 0.0576 | 0.0687 | – | – |
| F173N | 0.0647 | – | 0.0421 | – | 0.0607 | – | – | – | 0.0619 | 0.0671 | 0.0518 | 0.0472 | – | 0.0038 | – | – | 0.0645 | – | – |
| N178K | 0.0789 | 0.0806 | – | – | – | 0.0816 | – | – | 0.0522 | 0.0634 | – | 0.0511 | 0.0716 | 0.059 | 0.0692 | 0.0489 | – | 0.0862 | 0.0593 |
| N178D | 0.0649 | – | – | – | 0.0531 | 0.0603 | – | 0.0661 | 0.067 | 0.0709 | – | – | 0.0483 | 0.0617 | 0.0609 | 0.0609 | – | – | – |
| N178H | 0.0702 | 0.0393 | – | 0.0735 | – | – | – | – | – | 0.0709 | – | – | 0.0883 | – | 0.0555 | – | 0.0581 | – | – |
| G202D | 0.0672 | 0.0583 | – | 0.0666 | 0.07 | 0.0522 | 0.0963 | 0.0839 | – | 0.0635 | 0.0634 | 0.0631 | 0.0547 | – | 0.0598 | – | – | – | – |
| G202P | 0.0385 | 0.0586 | 0.0664 | 0.0567 | – | 0.0611 | – | 0.053 | – | 0.0539 | – | 0.0561 | 0.0676 | – | 0.058 | 0.149 | 0.0729 | 0.0783 | – |
| V183Q | 0.0637 | – | 0.0543 | 0.0554 | 0.0614 | 0.0464 | 0.0626 | – | 0.0768 | – | 0.0607 | – | 0.064 | – | 0.0521 | 0.0396 | 0.0501 | 0.047 | – |
| M188A | 0.0619 | 0.0782 | – | – | 0.067 | 0.0644 | 0.113 | 0.0696 | – | 0.0497 | 0.0637 | 0.0656 | 0.0705 | 0.0484 | – | 0.0671 | – | 0.0921 | – |
| L156T | 0.0536 | 0.0587 | – | 0.0523 | 0.0635 | 0.0559 | 0.0886 | 0.0588 | 0.0597 | 0.0631 | 0.0553 | 0.067 | 0.0725 | 0.0608 | 0.0394 | 0.0537 | – | 0.0605 | 0.058 |
| K148V | 0.0648 | – | 0.0675 | 0.0625 | 0.0482 | 0.0609 | 0.112 | 0.0484 | 0.0577 | 0.0831 | 0.0607 | – | – | 0.0073 | – | 0.0662 | 0.0543 | – | – |
| I145M | 0.0618 | 0.0557 | 0.0595 | 0.0697 | 0.0631 | 0.0566 | – | 0.0639 | 0.0559 | 0.0476 | 0.0455 | – | 0.0653 | – | 0.0535 | – | 0.055 | – | 0.0589 |
| Y179C | 0.0581 | 0.0568 | 0.0606 | – | 0.071 | 0.0583 | 0.0435 | 0.0643 | – | 0.0687 | – | 0.0576 | – | 0.059 | – | 0.0613 | 0.0393 | – | 0.0517 |
| Y179F | 0.0382 | 0.0382 | 0.0331 | 0.0612 | 0.0497 | – | – | 0.0579 | – | 0.0555 | 0.0509 | 0.0602 | – | – | 0.0589 | – | – | – | – |
| R160L | 0.0553 | – | – | – | 0.064 | – | – | 0.0726 | 0.0525 | – | – | 0.0714 | 0.078 | – | – | – | – | 0.0957 | – |
| A196S | 0.0505 | 0.0501 | 0.081 | 0.066 | 0.0794 | – | 0.0982 | 0.0683 | 0.0512 | 0.0633 | 0.0677 | 0.0658 | 0.0909 | – | 0.0312 | 0.0596 | 0.0626 | – | 0.0789 |
| E189F | 0.0642 | 0.0856 | 0.0637 | 0.0643 | 0.0554 | 0.0612 | – | 0.0797 | – | 0.0518 | 0.0402 | 0.0564 | – | – | 0.0611 | – | 0.0509 | 0.0793 | 0.0597 |
| G162W | 0.0576 | – | 0.0446 | – | – | 0.0644 | – | 0.0501 | – | 0.0599 | 0.0544 | 0.0551 | 0.0716 | – | 0.0601 | – | 0.0669 | – | – |
| G162K | 0.0589 | 0.0832 | – | 0.0459 | – | – | – | – | – | 0.0513 | 0.0689 | – | 0.0626 | – | – | 0.0559 | 0.0479 | – | – |
| G162I | 0.0545 | 0.0589 | – | 0.0592 | – | 0.0464 | – | – | – | 0.0646 | 0.0466 | – | 0.0559 | – | 0.0571 | 0.0589 | 0.0616 | – | – |
| Q151D | 0.0643 | 0.0645 | 0.0672 | 0.0663 | – | 0.0654 | – | – | 0.0738 | 0.0583 | 0.0588 | 0.0626 | 0.0867 | 0.0325 | 0.0596 | 0.0687 | 0.0687 | – | – |
| N175H | 0.0704 | – | – | 0.066 | – | 0.0754 | – | 0.114 | – | – | 0.0571 | – | – | – | 0.0269 | – | 0.0628 | – | – |
| H143F | 0.0653 | 0.0691 | 0.064 | – | 0.0669 | – | – | 0.0455 | 0.0665 | – | – | 0.0576 | 0.0736 | 0.0069 | – | – | 0.0531 | – | – |
| Q146H | 0.0585 | 0.0631 | 0.0664 | – | 0.0569 | – | 0.0937 | 0.0672 | 0.055 | 0.0607 | 0.039 | – | 0.0691 | 0.0496 | 0.0683 | – | 0.0669 | – | 0.0615 |
| Q146A | 0.0782 | – | – | – | – | 0.058 | – | 0.0409 | 0.0568 | 0.045 | – | – | 0.104 | – | – | 0.0691 | 0.0504 | – | – |
| Q146W | 0.061 | – | – | 0.0523 | – | 0.0534 | – | 0.0345 | – | 0.0309 | 0.0432 | – | 0.0961 | – | 0.0477 | 0.0536 | – | 0.0702 | – |
| F140Y | 0.0603 | – | 0.0604 | 0.0741 | – | – | – | – | 0.0538 | 0.0356 | 0.0549 | 0.0672 | – | – | – | – | – | – | – |
| C152N | 0.0576 | 0.0603 | – | 0.0597 | – | – | 0.0754 | 0.0333 | 0.06 | 0.0468 | – | 0.0608 | 0.0732 | – | 0.0686 | 0.0605 | 0.0685 | 0.0633 | 0.0562 |
| W141E | 0.0533 | 0.0214 | 0.0455 | 0.0617 | – | 0.0438 | – | 0.0514 | – | 0.048 | – | 0.0576 | 0.0227 | 0.0464 | – | – | 0.0583 | 0.0621 | 0.0527 |

Reference: the supplement of paper PMC12217912
